{"source": "the supplement of paper PMC12632987", "binders": {"B1": {"name": "traf2_out_12_187_961 (protein)", "chain": "SVQEELLEAARAAYRRARRALEELAPTDPAARELLARLDEAWALVERHPELAGDLLVAASAVLRYAQLVREGAPPEEIAAALARARAELDELLEEGRRLE"}, "B2": {"name": "traf2_out_8_15_2558 (protein)", "chain": "SLREAARRDLDKLEKASDGDEETLMNFVIGFARGEIRLAEIYLEEGDKEAARNTLAYARALLEEAIERFEALGSPYLPRLRKEAEELRKRIEEIEKRIEE"}, "B3": {"name": "traf2_out_11_155_687 (protein)", "chain": "EKEKEINNKLVDEMSEIADAAKAEVRAIAAEAGAAHPEAAAALAATLAATAGYGLSTFAGAMAAAFRALGLDEAAARVEALLAEAQKKMNAAVKKAEAEK"}, "B4": {"name": "traf2_out_13_95_1170 (protein)", "chain": "SEEKTKKEREIASEAFDKREEIAEDLKARILALIDDPEAAALMDEVVRNMNRFTVEAAADALQAAFPEKAAEITALRDEALAKMKEIDKETTKKLNEIEE"}, "B5": {"name": "traf2_out_5_63_2366 (protein)", "chain": "SAAEEERRRLREEARLIEAAIRAVIDGREEEARRLLAEAEARGIDWRTVALYFRGMARALRLQNEPQEKIERMERAAEEARARAEAAAAAAAAAAAAAAA"}, "B6": {"name": "traf2_out_20_3_2251 (protein)", "chain": "EELRKKAEEALEAAEAQLARAAPRLPADAAAEARRLLAEARRAFKTDYTDALVAVSALRRLALEQAQAAEAAGDAETAALLQELADLAQKLAQYLYKIIE"}, "B7": {"name": "traf2_out_14_149_1245 (protein)", "chain": "SAEAELLRKAAELDREAAKALEEILKLLEAGKLEEAKKALEKAIKELEKRGEELGVTTSTIFEMEHILELLKKDPKEAKKATKEARKRAEDAAEALLSIA"}, "B8": {"name": "traf2_out_15_48_1337 (protein)", "chain": "STEALQAAGRAINDAADAVRDAVAATLDELIPKADPEVKAELEALRARARAGAPLRTLRADLEALAKKADPEQKAVLDKQIAEIDATIAAMSATMNAVEA"}, "B9": {"name": "traf2_out_6_169_2480 (protein)", "chain": "SMEEEKKKKAEELLKELEKQAEEFLNIAKQVAEGKGVSSLENALLALETLLSQTKHLYDKAIKKFKELGFEEEAKKVEELKKKRLEELEKLLKEVKEKAA"}, "B10": {"name": "traf2_out_11_169_827 (protein)", "chain": "EEAEKNRKINDKALELEDKAKKEFKEFVLKLAKEDGLDVEEIKKIFEENKNKSLSAQAAAVIEYFKSKGKEEAAKKVLEKYEELKEKINKEVTAFIKELE"}, "B11": {"name": "traf2_out_17_162_1614 (protein)", "chain": "SELEKEKEELEKELEELEKELERLEKKLENIDKLSKEELSDLLVEASEARRRAREALERIKKLEEKLDKEEYEKLSKRFEELAERFQRIANKLYKKLEEK"}, "B12": {"name": "traf2_out_3_89_2279 (protein)", "chain": "MEEEEKKIEEARKNIETHIKGLEKSTRRVAEKMLEEGYSLETIKGLIKSSATALLEAFKISLKDEGFDEETIKELVEEAEKKLKEIEKELIEEAEKKYEE"}, "B13": {"name": "traf2_out_6_169_2491 (protein)", "chain": "SMAEELKKEAERHLKTAKELYEIAKTIYNQAINNKNYENIDDYIEALETIKNAYKHHYDKAIEYYKKLGNEEEAEKLEKEKEKKLKEIDEMIKKLKELKK"}, "B14": {"name": "traf2_out_14_17_1299 (protein)", "chain": "SILEKLEEIKKLAEELAKKYPELALETTRLVRKAESAIVLAEMYLEDPSYKPLAIEGLRNLKKLAEELAKKLKGKSAEGQKKAEEIKELAEKAIEELEKE"}, "B15": {"name": "traf2_out_16_177_1459 (protein)", "chain": "ELQKIMDRIVILSLIKRAAEYIVAGKEEEAKKYIEEARKEAEEAGDEEGLKLLEELEKLAKENTPEAKKKIKELARKAQKEAGELAEKAEELLEKRAKEE"}, "B16": {"name": "traf2_out_19_16_1982 (protein)", "chain": "HMEEAEKLIKEMKEYLEKALKLAKETVENLEKLSREELSDKLVEISELIRKAQEALEKAKKLLSDDKEKIKELEKEFDEKLDEINRLMTIIVNKYEELLK"}, "B17": {"name": "traf2_out_11_155_743 (protein)", "chain": "EERRKLNQEMNDKIMDLFDKAREEALKIAEEAAKKHPEHKEALDAKIESTKGFSYRSFILSLIELFKKLGLEEEAKKLEELLEKTQKEANKIVQETEKKL"}, "B18": {"name": "traf2_out_20_3_2181 (protein)", "chain": "EELEKELEKEKKEALKLIEQAAKLADKETAKRLKELAKRLEESETLSYEDQLVELSEIRRELLRLAEEARARGDEELAAVLEAAADALNRAMNLVQKIIE"}, "B19": {"name": "traf2_out_5_189_2327 (protein)", "chain": "SARAAEQAALRARARRLDREARELLAEAKAEGLSLEEIIERLLERAATLSLEDAQLYVGIAYAILKGEALANNDEELLKAAEEFRERAMAWIAARRAAAA"}}, "note": "The full ranking holds about 1,800 sequences; the median of “median log2 fold change of GCK-ALFA target abundance (FLAG IP / Myc IP barcode read proportion)” is about 0.14, and the lowest 2% start at about -0.84. Some of the results follow.", "data": [{"molecular_target": "T1, TRAF2, Q12933", "T1 chain": "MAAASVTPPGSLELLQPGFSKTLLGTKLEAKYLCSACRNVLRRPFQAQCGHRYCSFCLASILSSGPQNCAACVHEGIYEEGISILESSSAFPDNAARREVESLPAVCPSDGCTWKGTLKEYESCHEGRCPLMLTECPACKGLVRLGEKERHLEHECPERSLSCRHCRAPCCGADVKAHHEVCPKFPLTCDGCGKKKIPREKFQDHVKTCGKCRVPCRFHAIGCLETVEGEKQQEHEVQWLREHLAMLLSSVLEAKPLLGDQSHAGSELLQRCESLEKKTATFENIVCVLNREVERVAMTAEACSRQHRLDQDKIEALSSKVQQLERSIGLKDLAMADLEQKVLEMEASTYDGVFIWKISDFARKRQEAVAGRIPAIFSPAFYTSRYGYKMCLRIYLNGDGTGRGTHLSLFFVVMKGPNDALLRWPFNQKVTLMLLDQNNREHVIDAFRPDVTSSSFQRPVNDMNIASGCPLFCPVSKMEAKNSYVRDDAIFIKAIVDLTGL", "test": "median log2 fold change of GCK-ALFA target abundance (FLAG IP / Myc IP barcode read proportion) (log2 ratio); each designed protein is fused to an ALFA-tag nanobody in HEK293 cells to bring the named protein to FLAG-tagged glucokinase (GCK); Myc marks an untargeted standard; higher = target protein stabilised (more abundant)", "conditions": "target protein: 3xFLAG-MCP-GCK-ALFA reporter; HEK293 landing pad (RPLP)", "method_in_brief": "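The readout is target abundance, the per-binder median log2 ratio of FLAG to Myc barcode read proportions. It came from HEK293 landing-pad cells carrying a recombined ALFA-nanobody-fused binder library, induced with 2 μg mL^−1 doxycycline and transfected with a plasmid for a FLAG-tagged target and a Myc-tagged standard. After 48 h, lysates were immunoprecipitated with anti-FLAG and anti-Myc, and circular RNA barcodes were reverse transcribed, amplified and sequenced. Each barcode needed a proportion of at least 10^−7 in both replicates and each binder at least 3 barcodes per replicate, a pseudocount of 10^−6 was added, and the replicates were pooled.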", "values": [{"binder": "B1", "median log2 fold change": -0.376}, {"binder": "B2", "median log2 fold change": -0.337}, {"binder": "B3", "median log2 fold change": 0.176}, {"binder": "B4", "median log2 fold change": 0.161}, {"binder": "B5", "median log2 fold change": -0.861}, {"binder": "B6", "median log2 fold change": 0.331}, {"binder": "B7", "median log2 fold change": 0.266}, {"binder": "B8", "median log2 fold change": 0.367}, {"binder": "B9", "median log2 fold change": 0.277}, {"binder": "B10", "median log2 fold change": -0.542}, {"binder": "B11", "median log2 fold change": 0.0103}, {"binder": "B12", "median log2 fold change": 0.175}, {"binder": "B13", "median log2 fold change": -0.373}, {"binder": "B14", "median log2 fold change": -0.0329}, {"binder": "B15", "median log2 fold change": 0.0013}, {"binder": "B16", "median log2 fold change": 0.129}, {"binder": "B17", "median log2 fold change": 0.182}, {"binder": "B18", "median log2 fold change": 0.145}, {"binder": "B19", "median log2 fold change": -0.128}]}]}
